Laboratory results published in PubChem BioAssay AID1508624 (National Center for Advancing Translational Sciences (NCATS), 2021).
Screen size: about 48,000 compounds; about 120 (0.25%) were called active. Another 4% or so got no clear call; they are omitted. Calls follow the shape of the dose curve; as a rule, active = well fitted activation curve with a large enough effect; inconclusive = small, poorly fitted or top-dose-only effect, or another doubt; inactive = no such curve, though single readings can be large or run the other way. Some of the results follow.

Test: Primary qHTS for Identification of Small Molecule Activators of Huntingtin-Antisense Promoter Activity; also: nearly all actives have a fitted effect of over 55% in size
Conditions: HEK293 HTT-AS promoter firefly luciferase reporter, 24 h; series mostly up to 57.5 µM; activity change, positive = activation: at the top concentration
Summary of the method: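 Luminescence was read after Dual-Glo reagent and a 10 min room-temperature incubation. Values were normalized to vehicle (0% activity) and zero RLU (-100% activity). Reporter HEK293 cells had been exposed to compounds (up to 57.5 uM final) for 24 h.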

Activity change, positive = activation, inactive:
O=C(CSc1nc(-c2ccccc2)[nH]c1-c1ccccc1)Nc1ccc2c(c1)OCCO2 -3.7%, Cc1ccc(Nc2cc(C)c(C#N)c3nc4ccccc4n23)cc1Cl 15.1% [at 11.5 µM, percent change from vehicle, -100% = no light], CC(C)c1cc(-c2nc(-c3ccccc3)no2)n[nH]1 19.5%, CN(CC(=O)Nc1ccccc1Cl)S(=O)(=O)c1ccc(C(=O)N2CCOCC2)s1 -4.24%, COc1ccc(S(=O)(=O)N2CCN(Cc3ccc4c(c3)OCO4)CC2)cc1OC -27.5%, COc1ccc(-c2nc(CN3CCC(C(=O)NCc4ccccc4)CC3)c(C)o2)cc1OC -3.36%, Cn1nnc2c(N3CCN(c4ccccc4Cl)CC3)ncnc21 12%, CC(C)(C)c1ccc(-c2nc(SCCCOc3ccccc3)n3[nH]c(=O)cc3n2)cc1 -26.8%, COc1ccc(-c2c3c(=O)n(C)c(=O)n(C)c3c3c(C)nc4ccccc4n23)cc1 -13.8%, CCOC(=O)Cn1c(=O)n(-c2ccccc2OC)c2nc(-c3cccc(F)c3)nc(C(N)=O)c21 -28.2%, Cc1ccc(-c2nnc(SCc3cccc(C#N)c3)o2)cc1 1.25%, CCOC(=O)c1ccccc1NC(=O)N(C(C)C)C1CCN(C(C)=O)CC1 -5.33%, CCOC(=O)c1cccnc1SCC(=O)Nc1ccc(C)cc1C 0.617%, CCCCc1ccc(NC(=O)c2ccc(=O)n(Cc3cccc(C)c3)c2)cc1 -37.7%, Cc1ccc2c(c1)-c1c(cnc3cc(-c4ccccc4)nn13)CO2 14.3%, O=C(NCCc1ccccc1)c1nnc(Cc2cccc(F)c2)o1 -21.5%, COc1ccc(-c2nc(C)c(CCNS(=O)(=O)c3cc(C)c(C)cc3C)s2)cc1 -32.5%, CN(C)CCNC(=O)c1ccc2c(=O)n3c(nc2c1)CCCCC3 -5.95%, COc1cccc(N2CCN(C(=O)CCc3c(C)nc4c(c3C)c(=O)n(C)c(=O)n4C)CC2)c1 -12.2%, Cc1ccccc1-n1c(SCc2ccc(Cl)cc2)nc2[nH]ncc2c1=O -33.6%, CCC(C)NC(=O)c1ccc2c(c1)N(Cc1ccccc1)C(=O)c1ccccc1S2 (configuration not stated) -32.3%, CCOc1ccc(CNC(=O)C2CCCN(S(=O)(=O)c3ccc4c(ccn4C)c3)C2)cc1 (configuration not stated) -34.5%, CCN(CC)c1cc2c(cc1F)c(=O)c(S(=O)(=O)c1ccc(OC)cc1)cn2CC -16.9%, COc1ccc(-c2nc(CSc3nncn4c3cc3sccc34)c(C)o2)cc1OC -7.11%, O=C(CN1C(=O)CCc2cc(S(=O)(=O)N3CCOCC3)ccc21)NCc1ccccc1 -5.75%, CCNc1nc(OC)nc(Oc2ccc(=O)[nH]n2)n1 -8.49%, CC(C)(C)c1ccc(S(=O)(=O)N2CCN(Cc3noc(CCC(=O)N4CCCCC4)n3)CC2)cc1 -35.8%
